Results as given in publication PMC4336329 (PLoS ONE, 2015).
Out of some 310,000 compounds screened, about 2,200 (0.71%) showed an effect of 50% or more. The effect is printed as a negative number. This is one part of the list.

Molecular target: human ether-à-go-go-related gene (hERG) potassium channel (human, UniProt Q12809)
Experiment: primary screen, population patch clamp on CHO cells stably expressing hERG

Chain of human ether-à-go-go-related gene (hERG) potassium channel (Q12809 whole entry, looked up): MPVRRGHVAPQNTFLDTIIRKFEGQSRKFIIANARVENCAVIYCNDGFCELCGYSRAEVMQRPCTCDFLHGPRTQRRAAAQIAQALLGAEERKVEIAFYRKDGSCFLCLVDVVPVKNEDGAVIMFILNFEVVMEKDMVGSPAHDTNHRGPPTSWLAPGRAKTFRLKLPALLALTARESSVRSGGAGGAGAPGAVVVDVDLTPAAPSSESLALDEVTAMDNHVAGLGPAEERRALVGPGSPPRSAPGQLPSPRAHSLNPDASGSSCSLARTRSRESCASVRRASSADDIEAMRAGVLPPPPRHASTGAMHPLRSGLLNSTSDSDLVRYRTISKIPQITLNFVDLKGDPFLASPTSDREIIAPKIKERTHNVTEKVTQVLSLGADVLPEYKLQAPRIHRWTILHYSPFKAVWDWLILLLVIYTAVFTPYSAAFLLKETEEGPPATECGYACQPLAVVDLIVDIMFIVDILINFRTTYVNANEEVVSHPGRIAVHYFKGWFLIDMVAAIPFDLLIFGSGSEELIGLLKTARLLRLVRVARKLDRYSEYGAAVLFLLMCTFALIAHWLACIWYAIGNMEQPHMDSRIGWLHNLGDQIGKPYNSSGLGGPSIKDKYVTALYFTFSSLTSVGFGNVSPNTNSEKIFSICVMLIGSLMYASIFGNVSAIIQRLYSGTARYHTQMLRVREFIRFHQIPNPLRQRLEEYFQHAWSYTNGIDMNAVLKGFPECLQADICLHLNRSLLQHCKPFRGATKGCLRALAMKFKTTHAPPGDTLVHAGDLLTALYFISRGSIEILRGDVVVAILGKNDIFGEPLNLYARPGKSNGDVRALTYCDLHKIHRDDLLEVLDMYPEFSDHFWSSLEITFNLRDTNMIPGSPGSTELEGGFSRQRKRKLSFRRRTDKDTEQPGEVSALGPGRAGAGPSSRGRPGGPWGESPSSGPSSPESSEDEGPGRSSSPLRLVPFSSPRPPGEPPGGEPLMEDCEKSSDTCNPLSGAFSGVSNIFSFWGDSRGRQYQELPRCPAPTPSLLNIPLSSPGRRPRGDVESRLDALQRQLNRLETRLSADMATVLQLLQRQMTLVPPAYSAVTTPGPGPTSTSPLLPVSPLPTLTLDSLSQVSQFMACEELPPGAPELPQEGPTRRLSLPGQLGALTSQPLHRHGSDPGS

Row | SMILES | hERG current change (%, negative = inhibition) at 1uM
1 | Cc1c(C(=O)N(C)c2cccc(Cl)c2)cnn1-c1ccccc1 | 6.8%
2 | COc1ccc(C(=O)Cn2c(C(=O)/C=C/c3ccccc3)nc3ccccc32)cc1 | -10.2%
3 | Cc1nn(Cc2ccc(F)cc2)c(Cl)c1/C=N/NC(=O)c1ccccc1 | -6.29%
4 | COc1cccc(CN(C)C(=O)CSCC(=O)Nc2ccc(C)cc2)c1OC | 0.847%
5 | COc1cccc(NC(=O)N2C3CCCC2CC(NC(C)=O)C3)c1 (centres unmarked) | 11.6%
6 | CCOC(=O)C(C)Oc1cccc2c(=O)n(CC(=O)N3CCN(C(=O)OCC)CC3)ccc12 (centres unmarked) | 8.66%
7 | COc1ccc2c3c(c(=O)oc2c1OCC(N)=O)CCCC3 | 3.91%
8 | COc1ccc(NC(=O)CN(C)C(=O)CCC2CCCC2)cc1 | 19.6%
9 | COc1ccc(C(=O)N2CCN(CCNC(=O)C(=O)Nc3ccc(Br)cc3)CC2)cc1 | -25.2%
10 | CCc1nnc(NC(=O)CSc2ncc(-c3ccccc3)n2CC)s1 | -21.5%
11 | CN=c1scc(-c2ccccc2Br)n1/N=C/c1ccc[nH]1 | 6%
12 | CCOC(=O)N/N=C/c1cn(CCCOc2ccc(C)cc2)c2ccccc12 | 9%
13 | Cc1nc2ccccc2cc1O | 9.82%
14 | CN1CCc2c(c3c(n2C)CCN(C)C3c2ccc(F)cc2)C1c1ccc(F)cc1.Cl (centres unmarked) | 7.99%
15 | CC(=O)Nc1ccc(/C=N/N2C(=O)NC(C)(c3ccc(OC(F)F)cc3)C2=O)cc1 (centres unmarked) | 6.48%
16 | COc1ccc(N(CC(=O)NCc2cccnc2)S(=O)(=O)c2ccccc2)c(OC)c1 | 1.1%
17 | O=C(Nc1ccc(Cl)cc1C(=O)NCc1cccnc1)c1ccc(Cl)cc1Cl | 9.54%
18 | CCNC(=S)N1CCn2c(nc3ccccc32)C1 | 5.6%
19 | CCCCn1c(N)c(N(C)C(=O)c2cc3c(s2)CCCCC3)c(=O)[nH]c1=O | 17%
20 | Cc1ccc(S(=O)(=O)Nc2cc(NC(=O)CN3CCOCC3)ccc2Cl)cc1.Cl | 8.3%
21 | O=C(COC(=O)c1ccc2ccccc2n1)c1ccccc1 | 3.14%
22 | Cc1ccc([N+](=O)[O-])c(C(=O)N/N=C/c2cccs2)c1 | -1.87%
23 | Cc1cnc(C(=O)Nc2ccc(C)c(S(=O)(=O)N(C)C)c2)cn1 | -4.39%

Row | SMILES | hERG current change (%, negative = inhibition) at 1uM
24 | CN(C)c1nc(NC(C)(C)C)nc(NC(C)(C)C)n1 | 5.18%
25 | COc1cccc(C(=O)Nc2cc(-c3cn4cccnc4n3)ccc2C)c1 | -7.14%
26 | CCOc1ccc(-c2nc(-c3ccccc3)no2)cc1OCC | -5.62%
27 | CCc1ccc(NC(=O)c2sccc2-n2cccc2)cc1 | 0.493%
28 | O=C(NC(=S)N1CCN(c2ccccn2)CC1)c1ccccc1 | 5.74%
29 | Cc1ccc(S(=O)(=O)N(C)CC(=O)N(CC(C)C)C2CCS(=O)(=O)C2)cc1 (centres unmarked) | 7.26%
30 | NS(=O)(=O)c1ccc(NC(=O)CCCCC(=O)Nc2ccc(S(N)(=O)=O)cc2)cc1 | 7.75%
31 | CCOC(=O)c1cnn(-c2ccccc2)c1N | 7.33%
32 | COc1ccc(CN2C(=O)CCC2(C)C(=O)NC2CCCCC2)c(OC)c1 (centres unmarked) | 6.89%
33 | CC(=O)Cn1c(CN2CC(C)CC(C)C2)nc2c1c(=O)n(C)c(=O)n2C (centres unmarked) | 4.72%
34 | Nc1c(Br)c(=O)[nH]c(=O)n1-c1ccccc1 | 11.2%
35 | CCOC(=O)c1nc2cc3n(c(C)c-2c1C)C(C)C(CC)=C3C.Cl (centres unmarked) | -39.5%
36 | COc1ccc(CCNC(=O)c2cccnc2Cl)cc1OC | 12.2%
37 | Cc1ccc(N2CCN(/N=C/C=C/c3ccccc3)CC2)cc1 | -3.44%
38 | COc1ccc2nc(NC(=O)c3sc4nc(C)cc(C)c4c3N)sc2c1 | 6.14%
39 | O=C(NCCc1ccc(F)cc1)C(=O)NCC1CCCN1S(=O)(=O)c1ccccc1 (centres unmarked) | -19%
40 | CC(=O)c1c(C)[nH]c(C(=O)OCC(=O)c2ccc(C)s2)c1C | 6.13%
41 | Cc1nc2nc(-c3ccc(Cl)cc3)cn2nc1C | 10.3%
42 | COc1ccccc1-c1nnc(SCC(=O)NCc2ccco2)n1N | 16.9%
43 | Cc1n[nH]c(C)c1CCNCc1ccc(OCC(O)CN2CCCCC2)cc1 (centres unmarked) | -6.91%
44 | Cc1ccc(CNC(=O)CS(=O)Cc2nc(-c3ccccc3C)oc2C)cc1 (centres unmarked) | 5.91%
45 | COc1ccc(/C=C2\N=C(c3ccccc3)N(c3ccc(C(=O)O)cc3)C2=O)cc1OC | 7.37%
46 | O=C(NC(=S)Nc1ccc(CN2CCOCC2)cc1)c1cccc([N+](=O)[O-])c1 | 12.9%

Row | SMILES | hERG current change (%, negative = inhibition) at 1uM
47 | CC(C)Oc1ccc(C2CC(=O)NC3=C2C(=O)CCC3)cc1 (centres unmarked) | 14.8%
48 | Cc1ccc(NC(=O)CSCC(=O)NCCc2ccccn2)c(C)c1 | 16.1%
49 | CC(C)S(=O)(=O)c1ccc(C(=O)Nc2ccc(F)cc2F)cn1 | 4.51%
50 | COc1ccc(OC)c(Nc2nc(N)c([N+](=O)[O-])c(N3CCOCC3)n2)c1 | 13.3%
51 | Cc1ccc(S(=O)(=O)N(CC(=O)NCCSc2ccccn2)c2ccccc2F)cc1 | 2.6%
52 | O=C(/C=C/c1ccccc1)Oc1ccccc1C(=S)N1CCOCC1 | 7.89%
53 | CCOc1ccc(NS(=O)(=O)N(C)C)cc1 | 4.48%
54 | CCCC(=O)NC(=S)Nc1cccc(NC(=O)c2ccccc2Cl)c1 | 13.5%
55 | CCC(C)(C)NC(=O)CN(C(=O)CCC(=O)Nc1ccccn1)c1ccc(F)c(Cl)c1 | 11.2%
56 | O=C(NCc1cccs1)c1ccc(CS(=O)(=O)c2ccc(Cl)cc2)o1 | -8.45%
57 | CSc1cccc(NC(=O)C2CCN(S(=O)(=O)c3ccc4c(c3)NC(=O)CO4)CC2)c1 | 17.7%
58 | N/C(=N\OC(=O)CN1C(=O)c2ccccc2C1=O)c1ccc(Cl)cc1 | 1.96%
59 | Cc1nn(Cc2n[nH]c(=S)n2Cc2ccccc2)c(C)c1Cl | 14.1%
60 | Cc1ccc(-c2nnn(CC(=O)N(Cc3ccco3)C(C(=O)NC(C)(C)C)c3cccs3)n2)o1 (centres unmarked) | -3.21%
61 | Clc1ccc(CN=C(Nc2ccccc2)NC2CCCCC2)cc1 | -0.643%
62 | Cc1nnc(NC(=O)CCN2C(=O)/C(=C\c3ccccc3)SC2=S)s1 | 3.43%
63 | CC(=O)NS(=O)(=O)c1ccc(N2C(=O)CC(Sc3nccc(C)n3)C2=O)cc1 (centres unmarked) | 14.7%
64 | Nc1nc(SCC(=O)NCc2ccccc2)n[nH]1 | 6.33%
65 | CCC(C)NC(=O)c1cccc(OCc2c(C)noc2C)c1 (centres unmarked) | 8.77%
66 | CCCCCCNc1c(C(=O)OCC)c(=O)[nH]c2ccccc12 | -0.166%
67 | O=C(NCc1ccc(/C=N\NC(=O)C(=O)Nc2ccccc2Br)o1)C(=O)Nc1ccccc1 | 18.4%
68 | Cc1cccc(N2C(=S)NC3c4cc(Cl)ccc4OC2(C)C3C(=O)N(C)C)c1 (centres unmarked) | 2.3%
69 | O=C1N=c2ccccc2=C1c1sc(=S)n(NC(=O)c2ccccc2)c1O | 9.06%

Row | SMILES | hERG current change (%, negative = inhibition) at 1uM
70 | O=C(O)c1n[nH]c2c1CCCC2 | 18.8%
71 | COc1ccccc1N1CCN(CC(=O)Nc2cc(F)ccc2C)CC1 | -0.831%
72 | O=C(CCc1ccccc1)NC(NC(=S)Nc1cccc(Cl)c1)C(Cl)(Cl)Cl (centres unmarked) | 13.7%
73 | Cc1occc1C(=O)/C(C#N)=C/c1ccc(O)c(Br)c1 | 12.6%
74 | CCOC(=O)c1cc(S(=O)(=O)NC2CCCCC2)cn1C | 10.3%
75 | Cc1ccc(-c2ccc(CCC(=O)O)n2CC(=O)O)cc1 | 12.7%
76 | C=CCn1c(-c2csc(-c3ccccc3)n2)n[nH]c1=S | 21.9%
77 | Cn1nccc1C(=O)NC1CCCc2c1cnn2-c1ccc(C(C)(C)C)cc1 (centres unmarked) | 19.2%
78 | CN(C)/C(=N\S(=O)(=O)c1ccc(Cl)cc1)c1ccc(F)cc1 | 12.8%
79 | COc1cc(S(=O)(=O)NCc2ccccc2)ccc1Br | 6.24%
80 | COc1ccc(C(=O)Nc2cc(C(=O)c3ccccc3)c(C)oc2=O)cc1 | 12.9%
81 | O=C(C1CCN(S(=O)(=O)c2ccc3c(c2)OCCO3)CC1)N1CCc2ccccc21 | 4.85%
82 | CN(C)c1cccc(NC2=CC(=[N+]3CCOCC3)CC(C)(C)C2)c1.[I-] | -22.2%
83 | CCCCn1c(N)c(N(CC(C)C)C(=O)CCS(=O)(=O)c2ccc(C)cc2)c(=O)[nH]c1=O | 5.41%
84 | O=S(=O)(Nc1nc2ccccc2nc1-[n+]1cccc(N=C([O-])c2ccc(Cl)cc2)c1)c1ccccc1 | 9.3%
85 | CCOC(=O)COc1ccc2nsnc2c1Cl | 12.2%
86 | COC(=O)Cn1cnc2ccccc2c1=O | -10.6%
87 | COc1ccc(-c2cc(Cl)cc3c(=O)c4ccccc4n(C)c23)cc1F | 17.5%
88 | O=C(Nc1ccc([N+](=O)[O-])cn1)C1CC1 | 9.84%
89 | CCOC(=O)c1c(NC(=O)COC(=O)c2ccc(NC(=O)CC#N)cc2)sc(C(=O)NC)c1C | 2.16%
